This is one part of the list.
Experiments:
Assay in all cases: glycan array binding signal (z-score within array); higher = stronger binding
Conditions in all cases: glycan notation: IUPAC condensed, linker removed
Gal(b1-2)Gal = molecular target: Gal(b1-2)Gal
Summary of the method: (§1)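 The Consortium for Functional Glycomics database supplied 3228 glycan arrays, of which those lacking an available protein sequence were dropped. The binding signal, a within-array Z-score, was averaged across arrays of the same protein sequence and across linkers. Negative scores can be read as non-binding.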

Gal(b1-3)Gal = molecular target: Gal(b1-3)Gal
Summary of the method: as §1

Gal(b1-3)Gal(b1-4)GlcNAc = molecular target: Gal(b1-3)Gal(b1-4)GlcNAc
Summary of the method: as §1

Gal(b1-3)GalNAc = molecular target: Gal(b1-3)GalNAc
Summary of the method: as §1

[1] = molecular target: Gal(b1-3)GalNAc(b1-3)Gal(a1-4)Gal(b1-4)Glc
Summary of the method: as §1

[2] = molecular target: Gal(b1-3)GalNAc(b1-4)Gal(b1-4)Glc
Summary of the method: as §1

[3] = molecular target: Gal(b1-3)GalNAc(b1-4)[Neu5Ac(a2-3)]Gal(b1-4)Glc
Summary of the method: as §1

Gal(b1-3)GlcNAc = molecular target: Gal(b1-3)GlcNAc
Summary of the method: as §1

[4] = molecular target: Gal(b1-3)GlcNAc(b1-2)Man(a1-3)[Gal(b1-3)GlcNAc(b1-2)Man(a1-6)]Man(b1-4)GlcNAc(b1-4)GlcNAc
Summary of the method: as §1

[5] = molecular target: Gal(b1-3)GlcNAc(b1-3)Gal(b1-3)GlcNAc
Summary of the method: as §1

[6] = molecular target: Gal(b1-3)GlcNAc(b1-3)Gal(b1-4)Glc
Summary of the method: as §1

[7] = molecular target: Gal(b1-3)GlcNAc(b1-3)Gal(b1-4)GlcNAc
Summary of the method: as §1

[8] = molecular target: Gal(b1-3)[Fuc(a1-4)]GlcNAc
Summary of the method: as §1

[9] = molecular target: Gal(b1-3)[Fuc(a1-4)]GlcNAc(b1-3)Gal(b1-3)[Fuc(a1-4)]GlcNAc
Summary of the method: as §1

[10] = molecular target: Gal(b1-3)[Fuc(a1-4)]GlcNAc(b1-3)Gal(b1-4)GlcNAc
Summary of the method: as §1

[11] = molecular target: Gal(b1-3)[Fuc(a1-4)]GlcNAc(b1-3)Gal(b1-4)[Fuc(a1-3)]GlcNAc
Summary of the method: as §1

[12] = molecular target: Gal(b1-3)[GlcNAc(b1-6)]GalNAc
Summary of the method: as §1

[13] = molecular target: Gal(b1-3)[Neu5Ac(a2-6)]GalNAc
Summary of the method: as §1

[14] = molecular target: Gal(b1-3)[Neu5Ac(a2-6)]GlcNAc(b1-6)Gal(b1-4)Glc
Summary of the method: as §1

[15] = molecular target: Gal(b1-3)[Neu5Ac(b2-6)]GalNAc
Summary of the method: as §1

[16] = molecular target: Gal(b1-4)GalNAc(a1-3)[Fuc(a1-2)]Gal(b1-4)GlcNAc
Summary of the method: as §1

[17] = molecular target: Gal(b1-4)GalNAc(b1-3)[Fuc(a1-2)]Gal(b1-4)GlcNAc
Summary of the method: as §1

Gal(b1-4)Glc = molecular target: Gal(b1-4)Glc
Summary of the method: as §1

Gal(b1-4)Glc6S = molecular target: Gal(b1-4)Glc6S
Summary of the method: as §1

Gal(b1-4)GlcNAc = molecular target: Gal(b1-4)GlcNAc
Summary of the method: as §1

[18] = molecular target: Gal(b1-4)GlcNAc(a1-6)Gal(b1-4)GlcNAc
Summary of the method: as §1

[19] = molecular target: Gal(b1-4)GlcNAc(b1-2)Man(a1-3)[Gal(b1-4)GlcNAc(b1-2)Man(a1-6)]Man(b1-4)GlcNAc(b1-4)GlcNAc
Summary of the method: as §1

[20] = molecular target: Gal(b1-4)GlcNAc(b1-3)Gal(b1-3)GlcNAc
Summary of the method: as §1

[21] = molecular target: Gal(b1-4)GlcNAc(b1-3)Gal(b1-4)Glc
Summary of the method: as §1

[22] = molecular target: Gal(b1-4)GlcNAc(b1-3)Gal(b1-4)GlcNAc
Summary of the method: as §1

[23] = molecular target: Gal(b1-4)GlcNAc(b1-3)Gal(b1-4)GlcNAc(b1-3)Gal(b1-4)GlcNAc
Summary of the method: as §1

[24] = molecular target: Gal(b1-4)GlcNAc(b1-3)Gal(b1-4)[Fuc(a1-3)]GlcNAc(b1-3)Gal(b1-4)[Fuc(a1-3)]GlcNAc
Summary of the method: as §1

[25] = molecular target: Gal(b1-4)GlcNAc(b1-3)GalNAc
Summary of the method: as §1

[26] = molecular target: Gal(b1-4)GlcNAc(b1-3)[Gal(b1-4)GlcNAc(b1-6)]Gal(b1-4)GlcNAc
Summary of the method: as §1

[27] = molecular target: Gal(b1-4)GlcNAc(b1-3)[GlcNAc(b1-6)]Gal(b1-4)GlcNAc
Summary of the method: as §1

[28] = molecular target: Gal(b1-4)GlcNAc(b1-6)Gal(b1-4)GlcNAc
Summary of the method: as §1

[29] = molecular target: Gal(b1-4)GlcNAc(b1-6)Gal(b1-4)GlcNAc(b1-6)GalNAc
Summary of the method: as §1

[30] = molecular target: Gal(b1-4)GlcNAc(b1-6)GalNAc
Summary of the method: as §1

[31] = molecular target: Gal(b1-4)GlcNAc(b1-6)[Gal(b1-3)]GalNAc
Summary of the method: as §1

Gal3S(b1-3)GalNAc = molecular target: Gal3S(b1-3)GalNAc
Summary of the method: as §1

Gal3S(b1-3)GlcNAc = molecular target: Gal3S(b1-3)GlcNAc
Summary of the method: as §1

[32] = molecular target: Gal3S(b1-3)[Fuc(a1-4)]GlcNAc
Summary of the method: as §1

Gal3S(b1-4)Glc = molecular target: Gal3S(b1-4)Glc
Summary of the method: as §1

Gal3S(b1-4)Glc6S = molecular target: Gal3S(b1-4)Glc6S
Summary of the method: as §1

B1: R410P1E11 (Tachypleus tridentatus), TAL2_TACTR (protein)
chain: MEKGTPPTHDSDNWMGRAKEIGNGGWDQFQFLFFDPNGYLYAVSNDKLYKASPPQSDTDNWIARATEIGSGGWSGFKFLFFHPNGYLYAVRGQRFYKALPPVSNQD
Gal(b1-2)Gal
  glycan array binding signal (z-score): -0.309
Gal(b1-3)Gal
  glycan array binding signal (z-score): -0.213
Gal(b1-3)Gal(b1-4)GlcNAc
  glycan array binding signal (z-score): -0.622
Gal(b1-3)GalNAc
  glycan array binding signal (z-score): -0.233
[1]
  glycan array binding signal (z-score): 1.09
[2]
  glycan array binding signal (z-score): -0.247
[3]
  glycan array binding signal (z-score): -0.397
Gal(b1-3)GlcNAc
  glycan array binding signal (z-score): -0.392
[4]
  glycan array binding signal (z-score): -0.301
[5]
  glycan array binding signal (z-score): -0.154
[6]
  glycan array binding signal (z-score): -0.25
[7]
  glycan array binding signal (z-score): -0.214
[8]
  glycan array binding signal (z-score): -0.104
[9]
  glycan array binding signal (z-score): -0.298
[10]
  glycan array binding signal (z-score): -0.52
[11]
  glycan array binding signal (z-score): 1.49
[12]
  glycan array binding signal (z-score): -0.039
[13]
  glycan array binding signal (z-score): -0.538
[14]
  glycan array binding signal (z-score): -0.021
[15]
  glycan array binding signal (z-score): -0.346
[16]
  glycan array binding signal (z-score): -0.1
[17]
  glycan array binding signal (z-score): 0.323
Gal(b1-4)Glc
  glycan array binding signal (z-score): -0.21
Gal(b1-4)Glc6S
  glycan array binding signal (z-score): -0.407
Gal(b1-4)GlcNAc
  glycan array binding signal (z-score): 0.008
[18]
  glycan array binding signal (z-score): -0.52
[19]
  glycan array binding signal (z-score): -0.14
[20]
  glycan array binding signal (z-score): -0.341
[21]
  glycan array binding signal (z-score): 0.015
[22]
  glycan array binding signal (z-score): -0.111
[23]
  glycan array binding signal (z-score): -0.368
[24]
  glycan array binding signal (z-score): -0.411
[25]
  glycan array binding signal (z-score): 1.05
[26]
  glycan array binding signal (z-score): -0.144
[27]
  glycan array binding signal (z-score): -0.293
[28]
  glycan array binding signal (z-score): -0.267
[29]
  glycan array binding signal (z-score): -0.2
[30]
  glycan array binding signal (z-score): 0.235
[31]
  glycan array binding signal (z-score): 0.985
Gal3S(b1-3)GalNAc
  glycan array binding signal (z-score): -0.557
Gal3S(b1-3)GlcNAc
  glycan array binding signal (z-score): -0.424
[32]
  glycan array binding signal (z-score): -0.521
Gal3S(b1-4)Glc
  glycan array binding signal (z-score): -0.418
Gal3S(b1-4)Glc6S
  glycan array binding signal (z-score): -0.509

From the supplement of paper PMC8728848
